The source gives no read counts; variants with many changes may rest on few reads.
B1: LINE1-mini (parent)
chain: GGCAGAGCUCAACACAGCGUGGCAAAGUGGCUGUGGCUAGACUGCC

Variants of: B1
Assay: self-cleavage, relative activity (ratio to wild type); higher = more cleavage; in vitro, sequencing; the parent is a self-cleaving ribozyme
Variant G5A A6G C13A U20A C31U has a self-cleavage of 0.03. Work on G5C U9A C45U yielded a self-cleavage of 0.06. Work on A4G C18A A26C U43A yielded a self-cleavage of 0.07. With G29U C31U C46A the self-cleavage was 0.1. Variant A16U C18U A26C has a self-cleavage of 0.1. In the case of G7A C18A A26G C46A, the self-cleavage is reported as 0.06. For C10A C18G G30A, the self-cleavage was 0.07. In the case of A6G C10G A11G G33A U43A C45G, the self-cleavage is reported as 0.01. Work on G5U G30C C31U yielded a self-cleavage of 0.03. Work on A11G G30U G40C yielded a self-cleavage of 0. G1U A11U G22U U34C showed a self-cleavage of 0.02. In the case of C15U G36U A41C, the self-cleavage is reported as 0.02. G2A C23U G33A showed a self-cleavage of 0.26. With A16C C18G C37G A41U the self-cleavage was 0.07. Variant C10A A41C C42A has a self-cleavage of 0.01. For A6C G7U G40U, the self-cleavage was 0.03. For C10U U20A G22U C37A, the self-cleavage was 0.01. G2U G33U U34A showed a self-cleavage of 0.02. Variant A6C A11C G40A has a self-cleavage of 0.05. Work on C13A C37G C42U yielded a self-cleavage of 0.33. C10U U38G C46A gave a self-cleavage of 0.04. In the case of G1A C10A A24U A41C C46A, the self-cleavage is reported as 0.03. In the case of A4U U9G G35C, the self-cleavage is reported as 0.03. For G1C U9C A25G C46G, the self-cleavage was 0.01. Work on C23A A24U U28G yielded a self-cleavage of 1.63. C3G C15A A41C showed a self-cleavage of 0.16. Work on C13G G27U U34C yielded a self-cleavage of 0.05. With G21U A26G G29C C46A the self-cleavage was 0.58. In the case of G17C G21A A26C U38C, the self-cleavage is reported as 0.29. A11G U28A C45G showed a self-cleavage of 0.01. U20C G22C U32C G35U gave a self-cleavage of 0.61. With C8A U20A C31A G36U the self-cleavage was 0.27. G35U U43G C45A gave a self-cleavage of 0.07. For U9G A11U G22C, the self-cleavage was 0.02. For U9A C18U U32C G40C, the self-cleavage was 0.03. For C10A G17A G30U, the self-cleavage was 0.03. In the case of C23G A24C C37G, the self-cleavage is reported as 0.01. For G21A C23U A39U, the self-cleavage was 0.14. Work on C8U A16G C31U G44A yielded a self-cleavage of 0.02. A6G U9A G30U gave a self-cleavage of 0.16. A4C G5A G40U showed a self-cleavage of 0.71. For G1U U9C C10G C42G C45G, the self-cleavage was 0. For A6U A14C C18U, the self-cleavage was 0.09. For G33U C42U C45A, the self-cleavage was 0.02. With C8U U20A A39C the self-cleavage was 0.03. G5U U9C G36C G40U showed a self-cleavage of 0.02. A11U U20G A24C showed a self-cleavage of 0.02. C15G U32A A41G showed a self-cleavage of 0.01. With G7U G29U A41U the self-cleavage was 0.21. For G5U C15G U38A U43A, the self-cleavage was 0.01. G2U C13A U34A A41C U43C C45A gave a self-cleavage of 0.01. With G2C C3G C31U C46G the self-cleavage was 0.06. In the case of G7A U9C G19C, the self-cleavage is reported as 0.02. In the case of A4U A16G G29A, the self-cleavage is reported as 0.1. In the case of A16C G17A G22A A25C G33U A41U, the self-cleavage is reported as 0. In the case of C10G G19A G36A, the self-cleavage is reported as 0.02. C13G G29C G36A showed a self-cleavage of 0.06. In the case of G1U G21U A25U A39U C46U, the self-cleavage is reported as 0.25. With C13U C23U G44C the self-cleavage was 0.07. With C8U G29U G30C the self-cleavage was 0.17. Variant G1U C15G G21A G30U has a self-cleavage of 0.01. For C13A A39U C46A, the self-cleavage was 0.07. For C8G C15G A25G, the self-cleavage was 0.02. For G30C C31U C37U, the self-cleavage was 0.03. For G2U A11U C15U C31U A39G G40A, the self-cleavage was 0. A6C C13A G33U U34C A41G showed a self-cleavage of 0.13. For A11U C13G A14C, the self-cleavage was 0.01. For C10G U34A C45G, the self-cleavage was 0.01. U38A C42G C45G showed a self-cleavage of 0.04. In the case of C15G G17U U28C G29C C31A, the self-cleavage is reported as 0.02. Work on U9A A11G A14C G19C G40U G44U yielded a self-cleavage of 0.01. G5A G7A C45U gave a self-cleavage of 0.31. A4C A16G G22C showed a self-cleavage of 0.02. Variant A6G A11C C13A has a self-cleavage of 0.01. Variant A14C G17U C31G G44U has a self-cleavage of 0.02. In the case of C15A A25C G35C, the self-cleavage is reported as 0.04. G1U C10G U20C A25U U34C C42A showed a self-cleavage of 0. Work on A14G G19U G22A yielded a self-cleavage of 0.25. A11C A16G C46U showed a self-cleavage of 0.02. Work on G1A A12G A16U G22U yielded a self-cleavage of 0.05. Variant C8U A24G G27U U28G C31G has a self-cleavage of 0.03. A6C G29A G30U A39C A41G showed a self-cleavage of 2.11. For C15A U20A G33C C42A, the self-cleavage was 0.12. For G1U C8A C46G, the self-cleavage was 0.1. Variant A4G C10A C31A G40U C46G has a self-cleavage of 0.01. For G30C C37A A39C, the self-cleavage was 0.03. G7A G30C U38G gave a self-cleavage of 0.03. With A14G C23U A25C the self-cleavage was 0.59. For G5A A16U G17A G40U, the self-cleavage was 0.05. Variant A26G G30A C31A G40U A41G has a self-cleavage of 0.07. Variant G17U A25U A26C G29U has a self-cleavage of 0.34. G7U C10G G44A C46G showed a self-cleavage of 0.02. For G2U G5U U9G A25C C46A, the self-cleavage was 0.05. G2U C3A A6U C23G G35U gave a self-cleavage of 0.61. In the case of G7U C23G A26C U34A C37A, the self-cleavage is reported as 0.01. With A39C C42U C46U the self-cleavage was 0.07. Work on A4U C13G C42G yielded a self-cleavage of 0.02. For A6U G7U G17U, the self-cleavage was 0.22. For G27U A41C C45G, the self-cleavage was 0.05. With G5A C8A C13U C15G U20A G21U the self-cleavage was 0.32. With G7C A11C G22U C42A the self-cleavage was 0.02. With C8U C15A G33C G35U C45A the self-cleavage was 0.26. With U20G A26G A41G C45U the self-cleavage was 0.6. For G7C C18A A39U, the self-cleavage was 0.13. Work on G29C U34C G44A yielded a self-cleavage of 0.04. G5C A16C G36A C45U gave a self-cleavage of 0.03. With C8G G17U C18U G35C the self-cleavage was 0.02. G30U U32C C42A showed a self-cleavage of 0.04. With G1A U20G A26G the self-cleavage was 0.52. For G2U C13G A14G U34A, the self-cleavage was 0. For G2U C3U C8G A25C G27A, the self-cleavage was 0.03. Work on G5U C10A G40U yielded a self-cleavage of 0.01. C8G U28G A39C gave a self-cleavage of 0.04. Work on G2A G21C C46U yielded a self-cleavage of 0.69. In the case of C18G C37G C45A C46U, the self-cleavage is reported as 0.06. Variant C3U C8A G40C has a self-cleavage of 0.08. C23U C31A U32A gave a self-cleavage of 0.06. For C15U G36A A39U C42U, the self-cleavage was 0.07. With U9G G21U C31A A39G the self-cleavage was 0.02. G17U C18G A25G G44U showed a self-cleavage of 0.03. With A4G G7C G19C A39G C42A the self-cleavage was 0.11. Work on C10U C13U C18A G22C C23A C31A U38C yielded a self-cleavage of 0.03. G17A U34A C37G G40U gave a self-cleavage of 0. For G1C C31U U43C, the self-cleavage was 0. G7U G29C C42G gave a self-cleavage of 0.02. With G27U U38A G44U the self-cleavage was 0.11. A14G A16U G30C U32A gave a self-cleavage of 0.01. Variant A4U C8G C23U has a self-cleavage of 0.24. In the case of U9G A12G A14U G21U, the self-cleavage is reported as 0.01. For A11C U28G G29U, the self-cleavage was 0.05. Work on G19A U20G U32G G33U G35A U38A yielded a self-cleavage of 0.03. With C3A G30A A39C G40C the self-cleavage was 0.09. G7A C18A U32A A41C gave a self-cleavage of 0.11. For A14G G19C G30U U43C, the self-cleavage was 0.12. For C3A A4G U28A G35A, the self-cleavage was 0.12. In the case of G7C C10U G21A, the self-cleavage is reported as 0.91. Work on C8U A11G C13U yielded a self-cleavage of 0.23. With C3U U9A G22A the self-cleavage was 0.26. Variant G5A U28A U32G has a self-cleavage of 0.01. In the case of G2U C10G G19U A26G G30U C37U C46G, the self-cleavage is reported as 0. C10A A39G C42G showed a self-cleavage of 0.01. G2U A12U G17A G21A showed a self-cleavage of 0.02. In the case of C10A A12C C13U G30C, the self-cleavage is reported as 0. G2C G7U A12U A26C showed a self-cleavage of 0.38. In the case of G17A C37A C45G C46G, the self-cleavage is reported as 0.06. Variant C8G G17C G30A U34C C45A C46A has a self-cleavage of 0. In the case of A16C G19C C42U, the self-cleavage is reported as 0.04. In the case of C18A A25C C42A, the self-cleavage is reported as 0.07. Work on A11C U28C U34A G44U yielded a self-cleavage of 0. Work on G1U G17A U38A A39G yielded a self-cleavage of 0.05. In the case of C10G G29U U34G C46U, the self-cleavage is reported as 0.08. For C3A A4C G21A A24C, the self-cleavage was 0.16. C18U G27A U28C U32C showed a self-cleavage of 0.19. For C3G A12U U20A, the self-cleavage was 0.1. For A4G A11C U34C, the self-cleavage was 0.04. Work on G2C C13G A16G G21A G22U yielded a self-cleavage of 0.09. In the case of A26C G30A C37G G44U C45A, the self-cleavage is reported as 0.17. C10G A26G C42U gave a self-cleavage of 0.02. Work on C3U U9C C10A U20C yielded a self-cleavage of 0.04. For G2C A4C C10U G29U G44C, the self-cleavage was 0.01. Variant G1A G17C G22C U34A has a self-cleavage of 0.03. For A25U G40U G44U, the self-cleavage was 0.04. C10A C13U G27A U28C gave a self-cleavage of 0.01. Variant G2U A12G G33A G36U has a self-cleavage of 0. G19C G22C U28G G35A showed a self-cleavage of 0.21. A4U C37A C42A gave a self-cleavage of 0.32. G7A C23G G40U showed a self-cleavage of 0.16.

Source: the RNAGym collection of RNA variant scans (doi:10.7554/elife.90254)
